From PubChem BioAssay AID488969 (Vanderbilt High Throughput Screening Facility, 2010)
Whole data set: some 110,000 compounds, median “z-score” near -0.1, cut for the highest 2% near 2. The list shows a part of the results. Active and inactive are the calls of the source.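 The calls were made as follows: active = z-score in the third read window above 3 or below -3; inactive = the rest.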

molecular target: Metabotropic glutamate receptor 8 (Rattus norvegicus) (UniProt P70579); assay: mGluR8 Gi/Go-coupled signaling modulation – cell-based, rat, thallium flux, HTS, primary screen (AID 488969); settings: HEK293 rat mGluR8, GIRK (G protein-gated inwardly rectifying potassium channel) thallium flux, FluoZin2; at 10 µM; stronger effect = higher value; submaximal glutamate (EC20) added with thallium
Chain of UniProt P70579 (P70579 whole entry, looked up): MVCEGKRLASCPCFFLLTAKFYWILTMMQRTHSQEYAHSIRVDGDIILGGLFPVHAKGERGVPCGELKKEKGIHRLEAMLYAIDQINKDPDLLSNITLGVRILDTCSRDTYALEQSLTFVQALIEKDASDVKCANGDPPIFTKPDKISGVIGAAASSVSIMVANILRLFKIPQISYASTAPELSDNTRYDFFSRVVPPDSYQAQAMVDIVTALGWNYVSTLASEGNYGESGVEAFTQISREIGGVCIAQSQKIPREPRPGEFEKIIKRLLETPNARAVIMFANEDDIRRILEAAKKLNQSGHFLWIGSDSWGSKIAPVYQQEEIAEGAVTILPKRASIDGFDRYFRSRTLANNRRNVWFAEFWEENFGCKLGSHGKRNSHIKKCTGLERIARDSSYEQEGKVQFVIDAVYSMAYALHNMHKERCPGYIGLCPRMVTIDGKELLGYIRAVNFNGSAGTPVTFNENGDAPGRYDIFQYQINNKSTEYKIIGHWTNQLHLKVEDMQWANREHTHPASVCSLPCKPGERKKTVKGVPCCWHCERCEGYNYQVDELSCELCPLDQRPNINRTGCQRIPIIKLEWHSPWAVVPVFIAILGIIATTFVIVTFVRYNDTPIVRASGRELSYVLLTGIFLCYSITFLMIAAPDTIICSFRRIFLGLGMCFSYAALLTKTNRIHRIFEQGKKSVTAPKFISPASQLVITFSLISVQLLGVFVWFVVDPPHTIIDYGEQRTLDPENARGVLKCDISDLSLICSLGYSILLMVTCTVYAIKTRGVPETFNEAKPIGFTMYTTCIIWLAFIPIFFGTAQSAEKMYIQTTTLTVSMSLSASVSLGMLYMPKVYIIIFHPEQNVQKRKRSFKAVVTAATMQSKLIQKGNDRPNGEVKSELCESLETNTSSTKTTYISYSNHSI

Compared with `S=C(c1ccc(N2CCCC2)cc1)N1CCCCC1`, `Cc1ccc(C(=O)NCc2ccc3c(c2)OCO3)cc1S(=O)(=O)N1CCCCC1` is higher in z-score: -0.446 for the first, -0.34 for the second.

Compared with `COc1ccc(Cc2nnc(NC(=O)CSc3ccc(C)cc3)s2)cc1OC`, `CCOc1c2ccc(C(=O)NCc3ccc(C)cc3)cc2nn1CC` is lower in z-score: 0.302 for the first, -0.258 for the second.

Going from `CCOc1ccc(C(O)c2nccn2Cc2ccccc2)cc1` (configuration not stated) to `CCOC(=O)c1nn(-c2ccc(Cl)cc2)c2nc(Nc3ccccc3)cc(=O)n12`, the z-score falls from 0.113 to -0.375.

Going from `COc1ccc(C2(C(=O)Nc3nncs3)CCCC2)cc1` to `COc1ccc(C(=O)/C=C(\C)Nc2ccc3c(c2)OCO3)cc1`, the z-score falls from -0.037 to -0.807.

Compared with `CCC(=O)N1CCc2cc(S(=O)(=O)CCC(=O)Nc3ccc(C)c(F)c3)ccc21`, `O=C(CCN1CCc2ccccc2C1)Nc1ccc2c(c1)OCO2` is higher in z-score: -0.123 for the first, 0.267 for the second.

Compared with `COc1ccccc1NC(=S)NCc1ccccn1`, `CC(C)OCCCNC(=O)c1ccccc1Oc1ccccc1` is lower in z-score: -0.0089 for the first, -0.178 for the second.

First: COc1ccc(N2CC(C(=O)NC3CC(C)(C)NC(C)(C)C3)CC2=O)cc1 (configuration not stated)
Second: CC(C)c1ccc(NC(=O)C2CC(=O)N(C(C)C)C2)cc1 (configuration not stated)
The z-score of the first is lower: -0.0168 for the first, 0.188 for the second.

Going from `COc1cc2c(cc1OC)CN(C(=O)CSc1n[nH]c(N)n1)CC2` to `COc1ccc(CC(C(=O)Nc2cccc(F)c2)c2nn[nH]n2)c(OC)c1` (configuration not stated), the z-score falls from -0.299 to -1.18.

First: Cc1ccc(SCC(=O)Nc2ccc(N3CCN(c4ccccc4)CC3)c(F)c2)cc1
Second: Cc1ccc(NC(=O)CN(c2ccccc2)S(=O)(=O)N(C)C)cc1
The z-score of the first is lower: -0.177 for the first, 0.149 for the second.

Compared with `Cc1cccc(NC(=O)CN(C)S(=O)(=O)c2cccs2)c1`, `COc1ccc(OC)c(NC(=O)CCNS(=O)(=O)c2cccs2)c1` is lower in z-score: -0.0381 for the first, -0.0618 for the second.

First: O=C(O)CCC(=O)Nc1ccc(-c2nnc(-c3ccco3)o2)cc1
Second: O=C(CSc1nnc(CNC(=O)c2cccs2)o1)Nc1ccc2c(c1)OCO2
The z-score of the first is lower: -0.212 for the first, -0.175 for the second.

Going from `CN1CC(c2ccccc2)C2(COc3ccccc3C2=O)C12C(=O)Nc1ccccc12` (configuration not stated) to `Cc1ccc(C2=NN3C(C(=O)c4ccccc4)Oc4ccccc4C3C2)cc1` (configuration not stated), the z-score rises from -0.257 to -0.0987.

Compared with `O=C(NC(c1ccc(Cl)cc1)c1c(O)ccc2ccccc12)c1ccccc1` (configuration not stated), `O=C(NC(C(=O)N/N=C/c1cccc2ccccc12)c1n[nH]c(=O)c2ccccc12)c1ccccc1` (configuration not stated) is higher in z-score: -0.225 for the first, -0.0873 for the second.

Going from `CCN(C(=O)COC(=O)CNC(=O)c1ccc(C)c(C)c1)C1CCS(=O)(=O)C1` (configuration not stated) to `COC(=O)c1sc(N)c(C(=O)OC)c1COC(=O)CNS(=O)(=O)c1ccc(C)cc1`, the z-score falls from -0.0875 to -0.387.

Going from `CCOC(=O)c1c(NC(=O)c2ccoc2C)sc(C)c1C` to `Cc1sc(NC(=O)c2ccco2)c(C(c2cccnc2)N2CCCC2)c1C` (configuration not stated), the z-score falls from -0.133 to -0.443.

Compared with `C/C(N)=C(/C#N)C(=O)COC(=O)CCS(=O)(=O)c1ccccc1`, `CCS(=O)(=O)N1CCCC(C(=O)NCCc2ccccc2)C1` (configuration not stated) is higher in z-score: -0.258 for the first, -0.0661 for the second.

Going from `Cc1sc(NC(=O)c2ccccc2)c(C(c2ccccn2)N2CCN(CCO)CC2)c1C` (configuration not stated) to `O=C(Nc1ccccc1)N1CCN(Cc2ccc3c(c2)OCO3)CC1`, the z-score falls from -0.255 to -0.318.

First: Fc1ccc(-c2ccnc3nc(N4CCOCC4)nn23)cc1
Second: Cc1cc(C)c(C#N)c(Oc2ccc(F)cc2)n1
The z-score of the first is lower: -0.236 for the first, 0.000352 for the second.

Compared with `COC(=O)C(NC(=O)CCc1c(C)nc2ncnn2c1C)C(C)C` (configuration not stated), `CCOC(=O)C(NC(=O)c1cccnc1)(Nc1cccc(C)n1)C(F)(F)F` (configuration not stated) is higher in z-score: 0.141 for the first, 0.399 for the second.

Going from `O=C1C2CC=CCC2C(=O)N1c1ccc(NCCc2cccc(F)c2)c([N+](=O)[O-])c1` (configuration not stated) to `O=C(c1ccncc1)N(c1ccc2oc3c(c2c1)CCCC3)S(=O)(=O)c1cccc([N+](=O)[O-])c1`, the z-score falls from 0.109 to -0.1.

First: CCCCc1cc(=O)oc2cc(OCc3nn[nH]n3)c(Cl)cc12
Second: CCCCNC(=O)Cn1c(=O)oc2cc(S(=O)(=O)N3CC(C)CC(C)C3)ccc21 (configuration not stated)
The z-score of the first is higher: -0.0288 for the first, -0.066 for the second.

Compared with `CCCCN1C(=O)/C(=C/C=C2/CC(C)(C)CN2C)SC1=S`, `CCCCN(CCCNC(=O)C1CCN(S(=O)(=O)CC)CC1)c1ccccc1` is higher in z-score: -1.1 for the first, -0.175 for the second.

Going from `O=C(Nc1ccc(OC(F)F)c(Cl)c1)Nc1ccc2c(c1)OCO2` to `Cn1c(=O)c2c(nc(NCc3ccc4c(c3)OCO4)n2Cc2ccccc2)n(C)c1=O`, the z-score falls from -0.109 to -1.09.

Compared with `Cn1c(=O)c2c(SCC(=O)N3CCCc4ccccc43)nc(CC(C)(C)C)nc2n(C)c1=O`, `Cn1c(=O)c2c(nc(SCc3cccnc3)n2Cc2ccccc2)n(C)c1=O` is higher in z-score: -0.0793 for the first, 0.674 for the second.

First: Cc1c(C(=O)NCc2cccs2)oc2ccc(Br)cc12
Second: Cc1ccc(N(CCCCN2C(=O)c3ccccc3C2=O)C(=O)c2cccs2)cc1
The z-score of the first is lower: 0.0404 for the first, 0.0647 for the second.

Going from `COc1ccc(OC)c(C2CC(=O)N3CN(c4ccc(C)c(Cl)c4)CSC3=C2C#N)c1` (configuration not stated) to `COc1ccc(/C(O)=C2/C(=O)C(=O)N(CCN(C)C)C2c2ccc(OC)c(OC)c2)c(C)c1` (configuration not stated), the z-score rises from -0.177 to 1.01.

Compared with `Cn1cnc([N+](=O)[O-])c1Oc1ccccc1`, `O=c1c2ccccc2ncn1Cc1ccco1` is higher in z-score: -0.416 for the first, -0.2 for the second.

Going from `O=C(Nc1ccccc1Cl)c1ccn[nH]1` to `Cc1cc(C)c(S(=O)(=O)c2ccccc2)c(OC(=O)c2cc(F)c(F)cc2Cl)n1`, the z-score falls from -0.0806 to -2.04.

Compared with `O=C(/C=C/Nc1ccc(OC(F)(F)F)cc1)C(F)(F)F`, `CC(=O)Nc1ccc(S(=O)(=O)NC2(C(F)(F)F)N=C(c3ccccc3)NC2=O)cc1` (configuration not stated) is higher in z-score: -0.241 for the first, -0.0636 for the second.

Compared with `COc1cc(/C=N/NC(=O)CN(Cc2ccccc2)S(=O)(=O)c2ccc3c(c2)OCCO3)ccc1O`, `Cc1cc(N/N=C/c2cccc(Cl)c2)nc(NCc2ccccc2)n1` is lower in z-score: -0.0717 for the first, -0.218 for the second.

First: N#C/C(C(=O)N1CCOCC1)=C1\Nc2ccccc2S1
Second: CSCCC1(C(=O)O)NC(c2ccccc2O)C2C(=O)N(C(C)C)C(=O)C21 (configuration not stated)
The z-score of the first is higher: 0.454 for the first, -0.427 for the second.

Compared with `CCOc1ccc(S(=O)(=O)N/N=C(\C)C2CCCCC2)cc1`, `COc1ccc(Cc2nnc3c4cnn(C)c4ncn23)cc1` is higher in z-score: 0.0618 for the first, 1.03 for the second.

First: N#CCc1nc(CSc2nc3ccccc3s2)cs1
Second: Cc1[nH]n(-c2ccccc2)c(=O)c1C(c1ccc(O)c([N+](=O)[O-])c1)c1c(C)[nH]n(-c2ccccc2)c1=O
The z-score of the first is higher: -0.135 for the first, -0.776 for the second.

In the case of `CC(=O)c1sc(NC(=O)c2cc(-c3ccccc3)nn2-c2ccccc2)nc1C`, the z-score is reported as active: 3.
